Test results from the supplement of paper PMC12217912.
The list shows a part of the results. Sequences were assembled here from the parent chain. Values near 0.05 are background.

B1: TEV protease; numbered along this chain (parent)
chain: MGESLFKGPRDYNPISSSICHLTNESDGHTTSLYGIGFGPFIITNKHLFRRNNGTLVVQSLHGVFKVKDTTTLQQHLVDGRDMIIIRMPKDFPPFPQKLKFREPQREERICLVTTNFQTKSMSSMVSDTSCTFPSGDGIFWKHWIQTKDGQCGSPLVSTRDGFIVGIHSASNFTNTNNYFTSVPKNFMELLTNQEAQQWVSGWRLNADSVLWGGHKVFMVKPEEPFQPVKEATQL

Variants of: B1
Assay: raw area under fraction-flipped curve 0-4 h after induction (AUC4h, not background-subtracted), DNA-recorder readout of cleavage of the substrate (dimensionless); higher = more cleavage of the substrate by the protease variant
Conditions: temperature: 34 °C; time window: 0-4 h after rhamnose induction
Method: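 In vivo DNA recorder in E. coli TOP10(DE3) ΔrhaA at 34 °C. Each TEVp single-site mutant (parent TEVp 0) is paired with a single-site variant of the 7-mer TEVs (canonical ENLYFQ|S). The substrate sits between flexible linkers in a Bxb1-sfGFP-TEVs-SsrA fusion, so cleavage stabilises Bxb1 and speeds flipping of a recombination array, read by NGS. The value is the raw area under the fraction-flipped curve over 0-4 h after rhamnose induction (AUC4h), with ≥20 reads per time point. It is not background-subtracted; inactive controls average about 0.047.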
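Note: Bxb1 expression induced with 0.2% (w/v) L-rhamnose at OD600 near 0.5, cultures sampled hourly, flipped fraction per protease–substrate barcode pair counted by paired-end Illumina sequencing.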

Variant | area with substrate ENLYFAS | area with substrate ENLYFDS | area with substrate ENLYFES | area with substrate ENLYFFS | area with substrate ENLYFGS | area with substrate ENLYFHS | area with substrate ENLYFIS | area with substrate ENLYFKS | area with substrate ENLYFLS | area with substrate ENLYFMS | area with substrate ENLYFNS | area with substrate ENLYFPS | area with substrate ENLYFSS | area with substrate ENLYFTS | area with substrate ENLYFVS | area with substrate ENLYFWS | area with substrate ENLYFYS | area with substrate ENLYFCS | area with substrate ENLYFRS
MGESLFKGPRDYNPISSSICHLTNESDGHTTSLYGIGFGPFIITNKHLFRRNNGTLVVQSLHGVFKVKDTTTLQQHLVDGRDMIIIRMPKDFPPFPQKLKFREPQREERICLVTTNFQTKSMSSMVSDTSCTFPSGDGIFWKHWIQTKDGQCGSPLVSTRDGFIVGIHSASNFTNTNNYFTSVPKNFMELLTNQEAQQWVSGWRLNADSVLWGGHKVFMVKPEDPFQPVKEATQL [E224D] | 0.0353 | 0.0595 | 0.0655 | 0.0576 | 0.0643 | 0.0537 | 0.0575 | 0.0687 | 0.0589 | 0.0628 | 0.0689 | 0.057 | 0.0548 | 0.0645 | 0.058 | 0.0538 | 0.0647 | – | –
MGESLFKGPRDYNPISSSICHLTNESDGHTTSLYGIGFGPFIITNKHLFRRNNGTLVVQSLHGVFKVKDTTTLQQHLVDGRDMIIIRMPKDFPPFPQKLKFREPQREERICLVTTNFQTKSMSSMVSDTSCTFPSGDGIFWKHWIQTKDGQCGSPLVSTRDGFIVGIHSASNFTNTNNYFTSVPKNFMELLTNQEAQQWVSGWRLNADSVLWGGHKVFMVKPEIPFQPVKEATQL [E224I] | 0.0508 | 0.0729 | 0.0632 | 0.0622 | – | 0.0578 | 0.0599 | 0.057 | 0.073 | – | 0.061 | 0.0613 | – | 0.0792 | – | – | 0.0607 | 0.072 | –
MGESLFKGPRDYNPISSSICHLTNESDGHTTSLYGIGFGPFIITNKHLFRRNNGTLVVQSLHGVFKVKDTTTLQQHLVDGRDMIIIRMPKDFPPFPQKLKFREPQREERICLVTTNFQTKSMSSMVSDTSCTFPSGDGIFWKHWIQTKDGQCGSPLVSTRDGFIVGIHSASNFTNTNNYFTSVPKNFMELLTNQEAQQWVSGWRLNADSVLWGGHKVFMVKPELPFQPVKEATQL [E224L] | 0.0461 | – | 0.0667 | 0.0629 | – | – | 0.058 | – | 0.0578 | 0.0322 | 0.0671 | 0.0529 | 0.0598 | 0.0539 | 0.0605 | 0.0588 | 0.0836 | 0.0639 | 0.0738
MGESLFKGPRDYNPISSSICHLTNESDGHTTSLYGIGFGPFIITNKHLFRRNNGTLVVQSLHGVFKVKDTTTLQQHLVDGRDMIIIRMPKDFPPFPQKLKFREPQREERICLVTTNFQTKSMSSMVSDTSCTFPSGDGIFWKHWIQTKDGQCGSPLVSTRDGFIVGIHSASNFTNTNNYFTSVPKNFMELLTNQEAQQWVSGWRLNADSVLWGGHKVFMVKPEQPFQPVKEATQL [E224Q] | 0.0465 | – | 0.073 | – | 0.051 | – | 0.0568 | 0.0563 | 0.0635 | 0.0553 | 0.0551 | 0.0637 | 0.0632 | 0.0647 | 0.0566 | – | – | 0.0596 | 0.014
MGESLFKGPRDYNPISSSICHLTNESDGHTTSLYGIGFGPFIITNKHLFRRNNGTLVVQSLHGVFKVKDTTTLQQHLVDGRDMIIIRMPKDFPPFPQKLKFREPQREERICLVTTNFQTKSMSSMVSDTSCTFPSGDGIFWKHWIQTKDGQCGSPLVSTRDGFIVGIHSASNFTNTNNYFTSVPKNFMELLTNQEAQQWVSGWRLNADSVLWGGHKVFMVKPEEPFQFVKEATQL [P228F] | 0.0424 | 0.0548 | 0.0494 | 0.0659 | 0.0599 | – | 0.0604 | – | 0.0607 | 0.0553 | 0.0698 | 0.062 | – | 0.051 | – | 0.0631 | 0.0671 | 0.0608 | 0.0626
MGESLFKGPRDYNPISSSICHLTNESDGHTTSLYGIGFGPFIITNKHLFRRNNGTLVVQSLHGVFKVKDTTTLQQHLVDGRDMIIIRMPKDFPPFPQKLKFREPQREERICLVTTNFQTKSMSSMVSDTSCTFPSGDGIFWKHWIQTKDGQCGSPLVSTRDGFIVGIHSASNFTNTNNYFTSVPKNFMELLTNQEAQQWVSGWRLNADSVLWGGHKVFMVKPEEPFQPVKWATQL [E231W] | 0.0584 | – | – | 0.0732 | – | 0.0877 | 0.0538 | 0.0691 | – | 0.0662 | 0.0618 | 0.0495 | – | – | – | – | 0.045 | – | 0.0474
MGESLFKGPRDYNPISSSICHLTNESDGHTTSLYGIGFGPFIITNKHLFRRNNGTLVVQSLHGVFKVKDTTTLQQHLVDGRDMIIIRMPKDFPPFPQKLKFREPQREERICLVTTNFQTKSMSSMVSDTSCTFPSGDGIFWKHWIQTKDGQCGSPLVSTRDGFIVGIHSASNFTNTNNYFTSVPKNFMELLTNQEAQQWVSGWRLNADSVLWGGHKVFMVKPEEPFQPVKEETQL [A232E] | 0.0657 | 0.05 | 0.0882 | 0.0612 | – | 0.0608 | 0.0564 | 0.0395 | 0.0789 | 0.0612 | 0.0603 | 0.0616 | 0.0607 | – | 0.0844 | 0.0516 | – | – | 0.0746
MGESLFKGPRDYNPISSSICHLTNESDGHTTSLYGIGFGPFIITNKHLFRRNNGTLVVQSLHGVFKVKDTTTLQQHLVDGRDMIIIRMPKDFPPFPQKLKFREPQREERICLVTTNFQTKSMSSMVSDTSCTFPSGDGIFWKHWIQTKDGQCGSPLVSTRDGFIVGIHSASNFTNTNNYFTSVPKNFMELLTNQEAQQWVSGWRLNADSVLWGGHKVFMVKPEEPFQPVKELTQL [A232L] | 0.0503 | – | 0.0631 | 0.0776 | 0.0545 | – | 0.0516 | – | 0.0481 | 0.0618 | 0.0585 | 0.0374 | 0.0766 | – | – | – | 0.0702 | 0.0525 | 0.0595
MGESLFKGPRDYNPISSSICHLTNESDGHTTSLYGIGFGPFIITNKHLFRRNNGTLVVQSLHGVFKVKDTTTLQQHLVDGRDMIIIRMPKDFPPFPQKLKFREPQREERICLVTTNFQTKSMSSMVSDTSCTFPSGDGIFWKHWIQTKDGQCGSPLVSTRDGFIVGIHSASNFTNTNNYFTSVPKNFMELLTNQEAQQWVSGWRLNADSVLWGGHKVFMVKPEEPFQPVKEQTQL [A232Q] | 0.0585 | 0.0573 | 0.0528 | 0.0271 | – | 0.0567 | 0.0392 | 0.0727 | – | 0.0915 | 0.0597 | 0.0773 | 0.0679 | 0.0588 | – | 0.0618 | 0.0635 | 0.0535 | 0.0647
